# Results taken from FireProtDB (doi:10.1194/jlr.m002113).
# “And” between values parts separate entries of the source, which are not always exact repeats. Equal entries are not always repeated.
# Conditions: Homo sapiens; for denaturant m value / denaturant midpoint (higher = more stable) / unfolding free energy: 4 °C, Urea; for Tm / unfolding enthalpy (van 't Hoff): Thermal
# [1] = pH 7.4, CD, Tris-HCl 10000.0, NaCl 150000.0, reversible: yes
# [2] = pH 7.4, CD, sodium phosphate buffer 10000.0, reversible: yes
# [3] = pH 7.5, CD, sodium phosphate buffer 10 mM
# [4] = pH 7.5, fluorescence, sodium phosphate buffer 10 mM, reversible: yes
substance,measurement,setting,value
Apolipoprotein A-I wild type (letters omitted),denaturant m value,[1],1.5 kcal/mol/M and 1.4 kcal/mol/M
same,denaturant midpoint (higher = more stable),[1],2.7 M and 2.5 M
same,unfolding free energy,[1],3.9 kcal/mol and 3.3 kcal/mol
same,Tm,[2],60 °C and 57 °C
same,unfolding enthalpy (van 't Hoff),[2],33 kcal/mol and 41 kcal/mol
same,denaturant m value,[3],1.5 kcal/mol/M and 1.4 kcal/mol/M
same,denaturant midpoint (higher = more stable),[3],2.7 M and 2.5 M
same,unfolding free energy,[3],3.9 kcal/mol and 3.3 kcal/mol
same,Tm,[4],60 °C and 57 °C
same,unfolding enthalpy (van 't Hoff),[4],33 kcal/mol and 41 kcal/mol
